115 sequences from the BET-seq Pho4 binding data (Le et al. 2018) can be followed below.

The other results are listed elsewhere or left out. Values were computed here from the reads of four pooled replicates and scatter widely.

The target in the assay is T1, Pho4 (S. cerevisiae) (UniProt P07270).
T1 sequence: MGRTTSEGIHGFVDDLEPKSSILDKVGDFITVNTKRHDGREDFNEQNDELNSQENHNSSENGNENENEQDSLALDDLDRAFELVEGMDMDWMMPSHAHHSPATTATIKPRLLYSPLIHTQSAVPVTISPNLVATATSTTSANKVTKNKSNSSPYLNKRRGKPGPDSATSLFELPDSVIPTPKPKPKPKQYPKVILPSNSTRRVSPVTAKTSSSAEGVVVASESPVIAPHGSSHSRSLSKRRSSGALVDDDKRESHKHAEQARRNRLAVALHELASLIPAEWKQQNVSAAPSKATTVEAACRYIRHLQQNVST
Put plainly: relative binding free energy (BET-seq); higher = weaker binding. To be noted: reference: library average.
In the case of CGTTCCACGTGTTTTG, the “relative binding free energy” value worked out at 0.07 kcal/mol.

On to GGGAACACGTGCTGTT, for which the “relative binding free energy” value was -0.01 kcal/mol.

Take TTATCCACGTGGTGGA: the “relative binding free energy” value is -0.12 kcal/mol.

With GTTTACACGTGCTAGG, the “relative binding free energy” value amounted to 0.07 kcal/mol.

For the sequence ATAGTCACGTGTGTTG, the “relative binding free energy” value was 0.12 kcal/mol.

Turning to GGGTGCACGTGCGAGT, the “relative binding free energy” value came to 0 kcal/mol.

Regarding ATCGGCACGTGTGTGC, the “relative binding free energy” value was -0.02 kcal/mol.

In the case of AGTGACACGTGTTACG, the “relative binding free energy” value came to 0.06 kcal/mol.

Take TAGGACACGTGGGTTT: the “relative binding free energy” value is -0.1 kcal/mol.

Turning to CGTGACACGTGGAGGT, the “relative binding free energy” value was -0.06 kcal/mol.

With TAGTGCACGTGGTACG, the “relative binding free energy” value was -0.12 kcal/mol.

In the case of AGGCGCACGTGTATGG, the “relative binding free energy” value is -0.23 kcal/mol.

Consider TATACCACGTGGGAGG, for which the “relative binding free energy” value is -0.15 kcal/mol.

For ATGCGCACGTGGATTG, the “relative binding free energy” value is -0.11 kcal/mol.

As for GTATTCACGTGTGATT, the “relative binding free energy” value amounted to 0.34 kcal/mol.

GGTTTCACGTGTAGCA: the “relative binding free energy” value was 0.18 kcal/mol.

For GCTTACACGTGATGGG, the “relative binding free energy” value came to 0.26 kcal/mol.

With AGTACCACGTGGGGTG, the “relative binding free energy” value is -0.25 kcal/mol.

On to TAGGACACGTGCGCGG, for which the “relative binding free energy” value was -0.08 kcal/mol.

For TGGGTCACGTGTGCAA, the “relative binding free energy” value worked out at 0.08 kcal/mol.

Consider AGTGGCACGTGGTAGG, for which the “relative binding free energy” value is -0.15 kcal/mol.

For the sequence ATAAACACGTGTTATG, the “relative binding free energy” value was -0.14 kcal/mol.

Take TAGGACACGTGTAGTA: the “relative binding free energy” value was determined as 0.04 kcal/mol.

Consider AATGTCACGTGGGAAT, for which the “relative binding free energy” value came out at 0.16 kcal/mol.

For TTCGTCACGTGGTGGA, the “relative binding free energy” value came to 0.15 kcal/mol.

Regarding ACAGGCACGTGGGTCT, the “relative binding free energy” value is -0.15 kcal/mol.

For AAGAGCACGTGGGGAC, the “relative binding free energy” value is -0.03 kcal/mol.

Regarding AAGGACACGTGATTGA, the “relative binding free energy” value worked out at 0.26 kcal/mol.

Regarding TGGGTCACGTGGATTC, the “relative binding free energy” value was found to be 0.21 kcal/mol.

On to TGTATCACGTGCATGT, for which the “relative binding free energy” value is 0.08 kcal/mol.

Consider TAGGTCACGTGTGTTT, for which the “relative binding free energy” value was 0.17 kcal/mol.

As for AGATGCACGTGGGGCC, the “relative binding free energy” value was -0.15 kcal/mol.

For TATAGCACGTGTCATT, the “relative binding free energy” value is -0.16 kcal/mol.

Regarding TGATGCACGTGCTTTA, the “relative binding free energy” value is -0.05 kcal/mol.

Turning to GGTAGCACGTGATGTC, the “relative binding free energy” value turned out to be 0.19 kcal/mol.

For ATTGGCACGTGTTGAT, the “relative binding free energy” value worked out at 0.03 kcal/mol.

As for TCTGGCACGTGGGTAC, the “relative binding free energy” value was -0.27 kcal/mol.

In the case of AATTACACGTGCGGTG, the “relative binding free energy” value is 0.13 kcal/mol.

With CTTTACACGTGTTGAG, the “relative binding free energy” value stood at 0.06 kcal/mol.

As to TTATTCACGTGAGATT, the “relative binding free energy” value turned out to be 0.3 kcal/mol.

For CGCATCACGTGGTGTT, the “relative binding free energy” value worked out at 0.02 kcal/mol.

As for TACGGCACGTGGGGCG, the “relative binding free energy” value is -0.25 kcal/mol.

Regarding TGATCCACGTGAGGTG, the “relative binding free energy” value was found to be 0.09 kcal/mol.

For the sequence ATGAGCACGTGAGGTT, the “relative binding free energy” value came out at 0.2 kcal/mol.

TTTCTCACGTGCTGGG: the “relative binding free energy” value is 0.21 kcal/mol.

On to GCAGGCACGTGGGTTG, for which the “relative binding free energy” value was -0.16 kcal/mol.

Take CGGTTCACGTGGGTCA: the “relative binding free energy” value was found to be 0.12 kcal/mol.

TTTTGCACGTGAGAAT: the “relative binding free energy” value is 0.2 kcal/mol.

Consider TGTTGCACGTGGCGAT, for which the “relative binding free energy” value was -0.05 kcal/mol.

With TATGTCACGTGATGCG, the “relative binding free energy” value turned out to be 0.14 kcal/mol.

Take CTTGTCACGTGTACTG: the “relative binding free energy” value stood at 0.24 kcal/mol.

As for GTATCCACGTGAGGTG, the “relative binding free energy” value amounted to 0.32 kcal/mol.

Take GGGATCACGTGCGTAT: the “relative binding free energy” value is 0.16 kcal/mol.

Regarding TTAGTCACGTGTCGCG, the “relative binding free energy” value was 0.16 kcal/mol.

On to ATTCGCACGTGCGTTT, for which the “relative binding free energy” value is -0.03 kcal/mol.

For TTATTCACGTGTCGGA, the “relative binding free energy” value came out at 0.11 kcal/mol.

Consider ACGGGCACGTGGGTCA, for which the “relative binding free energy” value is -0.16 kcal/mol.

For TTAGTCACGTGGCAGA, the “relative binding free energy” value was -0.06 kcal/mol.

Regarding TTCGGCACGTGCAGGA, the “relative binding free energy” value is -0.06 kcal/mol.

Regarding GTAATCACGTGTGTGA, the “relative binding free energy” value came to 0.18 kcal/mol.

For the sequence GTTATCACGTGGTGAG, the “relative binding free energy” value was 0.19 kcal/mol.

Regarding TAGCGCACGTGTAGAG, the “relative binding free energy” value is 0.01 kcal/mol.

As to GACAGCACGTGTAGGT, the “relative binding free energy” value was 0.13 kcal/mol.

With AGTGGCACGTGGATTA, the “relative binding free energy” value was -0.06 kcal/mol.

Consider GTGCTCACGTGGGTTT, for which the “relative binding free energy” value stood at 0.13 kcal/mol.

Consider GTGGTCACGTGGTCTC, for which the “relative binding free energy” value was 0.14 kcal/mol.

In the case of GCGTACACGTGGATTT, the “relative binding free energy” value was found to be 0.31 kcal/mol.

In the case of TTTGACACGTGTTAAA, the “relative binding free energy” value was determined as 0.05 kcal/mol.

Consider GAGAGCACGTGCGGCG, for which the “relative binding free energy” value was -0.03 kcal/mol.

With CGGTACACGTGAGGGG, the “relative binding free energy” value came to 0.28 kcal/mol.

For the sequence AGGTGCACGTGAGATA, the “relative binding free energy” value was 0.13 kcal/mol.

GTTGTCACGTGAGGTA: the “relative binding free energy” value came to 0.25 kcal/mol.

For AAGTCCACGTGGGGTG, the “relative binding free energy” value was found to be 0 kcal/mol.

Consider TGTTGCACGTGAACAT, for which the “relative binding free energy” value worked out at 0.14 kcal/mol.

CTAGACACGTGTAGGT: the “relative binding free energy” value was determined as 0 kcal/mol.

For GTTGCCACGTGTTTGG, the “relative binding free energy” value was -0.03 kcal/mol.

In the case of TGAGCCACGTGTGGCG, the “relative binding free energy” value was determined as 0.04 kcal/mol.

Take CCCGGCACGTGTGGGG: the “relative binding free energy” value is -0.09 kcal/mol.

On to CTTATCACGTGGCTGG, for which the “relative binding free energy” value was 0.06 kcal/mol.

CGAATCACGTGGGGTG: the “relative binding free energy” value worked out at 0.11 kcal/mol.

As to ATTAGCACGTGATGAG, the “relative binding free energy” value turned out to be 0.08 kcal/mol.

Consider TTTATCACGTGTAACT, for which the “relative binding free energy” value turned out to be 0.26 kcal/mol.

Regarding GTCGTCACGTGATCGT, the “relative binding free energy” value worked out at 0.27 kcal/mol.

For TTTTTCACGTGAAGAA, the “relative binding free energy” value came to 0.32 kcal/mol.

Take CGTTTCACGTGATTTT: the “relative binding free energy” value was determined as 0.31 kcal/mol.

Consider GCTGGCACGTGTTGTG, for which the “relative binding free energy” value is -0.17 kcal/mol.

Regarding TAGGGCACGTGTGAGA, the “relative binding free energy” value is -0.07 kcal/mol.

Take GTGTACACGTGTTTTG: the “relative binding free energy” value stood at 0.11 kcal/mol.

For ATGAACACGTGGTTGG, the “relative binding free energy” value was found to be 0 kcal/mol.

Turning to CTGCGCACGTGAGTGG, the “relative binding free energy” value amounted to 0.08 kcal/mol.

For the sequence GCGAGCACGTGGGCGT, the “relative binding free energy” value was -0.23 kcal/mol.

TCATGCACGTGTTTGT: the “relative binding free energy” value was -0.09 kcal/mol.

For the sequence AGTCACACGTGTGGTT, the “relative binding free energy” value was -0.08 kcal/mol.

On to GTATCCACGTGGGGAT, for which the “relative binding free energy” value amounted to 0.05 kcal/mol.

Regarding TGGAGCACGTGTGGTG, the “relative binding free energy” value was determined as 0.04 kcal/mol.

For the sequence TCGGTCACGTGCTGTG, the “relative binding free energy” value was 0.01 kcal/mol.

For AATCGCACGTGGCAGG, the “relative binding free energy” value stood at 0 kcal/mol.

As for GGCACCACGTGGGTGG, the “relative binding free energy” value was -0.22 kcal/mol.

As to TGATTCACGTGCTTTG, the “relative binding free energy” value amounted to 0.16 kcal/mol.

For the sequence TTGGTCACGTGGTTTA, the “relative binding free energy” value worked out at 0.16 kcal/mol.

As for GGAATCACGTGGGTTG, the “relative binding free energy” value is 0.08 kcal/mol.

GCTATCACGTGTTAGT: the “relative binding free energy” value was 0.19 kcal/mol.

Consider CGTATCACGTGTGTTT, for which the “relative binding free energy” value was found to be 0.19 kcal/mol.

Consider GGTGACACGTGTGTAT, for which the “relative binding free energy” value turned out to be 0.06 kcal/mol.

On to TTCGTCACGTGATCGG, for which the “relative binding free energy” value was determined as 0.19 kcal/mol.

CAGATCACGTGGTGGT: the “relative binding free energy” value stood at 0.14 kcal/mol.

TCAAGCACGTGGTGGG: the “relative binding free energy” value is -0.3 kcal/mol.

Regarding CGGAGCACGTGGATGT, the “relative binding free energy” value is -0.07 kcal/mol.

Regarding AGAATCACGTGAAGTG, the “relative binding free energy” value was determined as 0.33 kcal/mol.

Regarding TGATGCACGTGTCGGC, the “relative binding free energy” value is -0.01 kcal/mol.

As for TTTGTCACGTGTCGCT, the “relative binding free energy” value came to 0.12 kcal/mol.

For GATATCACGTGTTGTA, the “relative binding free energy” value was determined as 0.14 kcal/mol.

With AATATCACGTGAGGAT, the “relative binding free energy” value was determined as 0.31 kcal/mol.

Take TTGATCACGTGCCGTG: the “relative binding free energy” value stood at 0.17 kcal/mol.

In the case of GAGTCCACGTGAGGTG, the “relative binding free energy” value came out at 0.22 kcal/mol.
